Among the data in publication PMC4242493 are binding signal (normalized occupancy) values, retold here.

The other results are listed elsewhere or left out. The list includes weakly bound sequences.

The assay addresses MaxL homodimer (UniProt P61244). Kind of assay: universal protein-binding microarray (PBM). The note with it: PBS-based mixture, 10 nM His-tagged protein dimer, 2% milk, 200 ng/uL BSA, 50 ng/uL salmon testes DNA, 0.02% TX-100; detection with Alexa 488 anti-His …; high values mean tight binding; most listed sequences are background and not binding sites; double strand, one strand shown.
Chain of UniProt P61244 (P61244 whole entry): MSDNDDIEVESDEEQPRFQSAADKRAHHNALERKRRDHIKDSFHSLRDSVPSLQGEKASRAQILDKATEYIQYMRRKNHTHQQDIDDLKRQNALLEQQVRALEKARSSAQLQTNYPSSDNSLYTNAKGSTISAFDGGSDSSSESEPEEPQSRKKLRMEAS
Consider GACCATCA, for which the binding signal (normalized occupancy) is 0.0742.

As for AACTTCAT, the binding signal (normalized occupancy) was determined as 0.0769.

On to TACAGGCA, for which the binding signal (normalized occupancy) is 0.0794.

On to ACATGAGT, for which the binding signal (normalized occupancy) stood at 0.09.

With ACTCCAAC, the binding signal (normalized occupancy) is 0.0732.

Turning to CCCCATCG, the binding signal (normalized occupancy) was 0.0763.

TAGCATCA: the binding signal (normalized occupancy) came to 0.0821.

For the sequence GGCTTACA, the binding signal (normalized occupancy) was 0.0708.

Regarding GCAAGGAA, the binding signal (normalized occupancy) came out at 0.0739.

Regarding CCTGTCGA, the binding signal (normalized occupancy) was determined as 0.0755.

With ACTTGCTA, the binding signal (normalized occupancy) came to 0.0766.

With ACTGAGGA, the binding signal (normalized occupancy) was found to be 0.0703.

Regarding GCCGATCC, the binding signal (normalized occupancy) amounted to 0.073.

As for ATCTGCTC, the binding signal (normalized occupancy) turned out to be 0.0788.

On to CGGCACAA, for which the binding signal (normalized occupancy) is 0.0773.

For the sequence GTTCTCTA, the binding signal (normalized occupancy) worked out at 0.0731.

ACTTGTCC: the binding signal (normalized occupancy) was 0.0745.

Turning to AAAGTACT, the binding signal (normalized occupancy) was found to be 0.07.

Regarding TCCGAACA, the binding signal (normalized occupancy) was found to be 0.0723.

Take AGTTGCGA: the binding signal (normalized occupancy) was 0.0747.

Take GACTTCTA: the binding signal (normalized occupancy) is 0.0709.

On to CGAAGACA, for which the binding signal (normalized occupancy) was found to be 0.0716.

For the sequence ACCGCGGA, the binding signal (normalized occupancy) was found to be 0.0699.

Regarding AACAGGTG, the binding signal (normalized occupancy) stood at 0.102.

Consider ATCCTAGA, for which the binding signal (normalized occupancy) is 0.0777.

Regarding AGCTGGTC, the binding signal (normalized occupancy) is 0.066.

With CCTTGGGC, the binding signal (normalized occupancy) was 0.0653.

Regarding ACTATCTG, the binding signal (normalized occupancy) stood at 0.0778.

With CGACAGCC, the binding signal (normalized occupancy) came out at 0.0758.

Take CACGTCCG: the binding signal (normalized occupancy) worked out at 0.0797.

Turning to CTGTAATC, the binding signal (normalized occupancy) was determined as 0.0775.

GGCATAGA: the binding signal (normalized occupancy) was 0.0757.

As for GTGGACCA, the binding signal (normalized occupancy) was 0.0775.

For CTTCCGAA, the binding signal (normalized occupancy) was 0.0715.

For GTCGTACA, the binding signal (normalized occupancy) is 0.0761.

As for CACTTCCG, the binding signal (normalized occupancy) stood at 0.0703.

With AATGACAA, the binding signal (normalized occupancy) turned out to be 0.0791.

Take CCTTTAAC: the binding signal (normalized occupancy) was 0.0699.

Consider AGAGTCTC, for which the binding signal (normalized occupancy) worked out at 0.0681.

For AACTGGCT, the binding signal (normalized occupancy) amounted to 0.0689.

Regarding AGTCTGTG, the binding signal (normalized occupancy) stood at 0.0705.

For AGGTTGGG, the binding signal (normalized occupancy) is 0.0722.

As to AGATATAT, the binding signal (normalized occupancy) was found to be 0.0885.

Regarding CTAGGCAG, the binding signal (normalized occupancy) was determined as 0.0705.

For the sequence GCATAGTA, the binding signal (normalized occupancy) came out at 0.0788.

As for GCGGGACA, the binding signal (normalized occupancy) turned out to be 0.0728.

In the case of AACGACCT, the binding signal (normalized occupancy) was found to be 0.0734.

For the sequence AGTGTTGA, the binding signal (normalized occupancy) came to 0.0724.

As to CGTCATGC, the binding signal (normalized occupancy) is 0.0901.

Turning to AACACGTG, the binding signal (normalized occupancy) was 0.706.

On to GCTCCACA, for which the binding signal (normalized occupancy) worked out at 0.0778.

As to AATGGAGC, the binding signal (normalized occupancy) amounted to 0.0753.

Consider ACCTACAA, for which the binding signal (normalized occupancy) is 0.0732.

For the sequence CTAGCTGC, the binding signal (normalized occupancy) came to 0.0705.

For the sequence AACGACCG, the binding signal (normalized occupancy) worked out at 0.0713.

In the case of CATTTTTA, the binding signal (normalized occupancy) was found to be 0.0776.

With AGGGAGAG, the binding signal (normalized occupancy) came to 0.0771.

ATATGCGA: the binding signal (normalized occupancy) worked out at 0.0834.

Consider CACGCAGG, for which the binding signal (normalized occupancy) is 0.0845.

For AAGACCCG, the binding signal (normalized occupancy) was determined as 0.0707.

AATTTATA: the binding signal (normalized occupancy) is 0.0795.

For the sequence GACTGCCC, the binding signal (normalized occupancy) came out at 0.0688.

Take CTATTTCA: the binding signal (normalized occupancy) was determined as 0.0817.

For the sequence AACCTTGC, the binding signal (normalized occupancy) worked out at 0.0728.

In the case of GCAGATCC, the binding signal (normalized occupancy) was determined as 0.0742.

For the sequence GTTTTATA, the binding signal (normalized occupancy) is 0.0785.

For the sequence CGCTGCGA, the binding signal (normalized occupancy) is 0.0718.

As for ATGTATGC, the binding signal (normalized occupancy) was 0.0851.

In the case of CGAACTGA, the binding signal (normalized occupancy) came to 0.07.

For AGCTCACT, the binding signal (normalized occupancy) came to 0.0712.

In the case of ACTGGCTC, the binding signal (normalized occupancy) stood at 0.0665.

With AAGGCTCG, the binding signal (normalized occupancy) turned out to be 0.0689.

As to AGTCTTGC, the binding signal (normalized occupancy) turned out to be 0.0751.

In the case of ACTTCCTA, the binding signal (normalized occupancy) stood at 0.0759.

Regarding CAGGCAGA, the binding signal (normalized occupancy) was found to be 0.072.

In the case of AGTTTATG, the binding signal (normalized occupancy) stood at 0.0741.

In the case of AAGGAGCG, the binding signal (normalized occupancy) was 0.0653.

Consider GTTAGCCA, for which the binding signal (normalized occupancy) came out at 0.0713.

With CTTCTCTA, the binding signal (normalized occupancy) stood at 0.0722.

For the sequence AAACGGTA, the binding signal (normalized occupancy) turned out to be 0.0728.

Regarding ATGGCGTG, the binding signal (normalized occupancy) stood at 0.0949.

As for AGATTTCA, the binding signal (normalized occupancy) is 0.0771.

Consider AGACGACA, for which the binding signal (normalized occupancy) came out at 0.0751.

Regarding CAGGAGGC, the binding signal (normalized occupancy) amounted to 0.0691.

Regarding CTAGAACC, the binding signal (normalized occupancy) came to 0.0725.

On to GCTGCCAA, for which the binding signal (normalized occupancy) worked out at 0.0702.

In the case of AGTTTCAG, the binding signal (normalized occupancy) is 0.0706.

With ACAACTAT, the binding signal (normalized occupancy) was determined as 0.0777.

In the case of AGTCTCGG, the binding signal (normalized occupancy) amounted to 0.069.

On to ACAGTATG, for which the binding signal (normalized occupancy) is 0.0832.

As for AAGGGGGC, the binding signal (normalized occupancy) worked out at 0.0846.

Turning to ACAATTAT, the binding signal (normalized occupancy) worked out at 0.0791.

Turning to ATGTGAGG, the binding signal (normalized occupancy) stood at 0.0857.

As to GTATCTAA, the binding signal (normalized occupancy) came to 0.0851.

With ATCAGTTC, the binding signal (normalized occupancy) turned out to be 0.074.

As for AGTTTTTA, the binding signal (normalized occupancy) was 0.0727.

For the sequence CCTGGCAG, the binding signal (normalized occupancy) was determined as 0.0749.

In the case of GATTTGGA, the binding signal (normalized occupancy) worked out at 0.0764.

In the case of CCTTACAA, the binding signal (normalized occupancy) stood at 0.076.

Regarding AGCTGGTA, the binding signal (normalized occupancy) was 0.0693.

In the case of CGCTGGCA, the binding signal (normalized occupancy) is 0.0704.

On to ACTGGACG, for which the binding signal (normalized occupancy) was 0.0706.

With CCACCGAA, the binding signal (normalized occupancy) stood at 0.0733.

With GCGGGAGA, the binding signal (normalized occupancy) worked out at 0.0717.

Consider TACTCTGA, for which the binding signal (normalized occupancy) was 0.0744.

Take TCACGGCA: the binding signal (normalized occupancy) was 0.0772.

Regarding ACAATCAA, the binding signal (normalized occupancy) is 0.0715.

For the sequence AGGAGTCG, the binding signal (normalized occupancy) is 0.0717.

AACTGTAC: the binding signal (normalized occupancy) was 0.0732.

Regarding TATCACAA, the binding signal (normalized occupancy) stood at 0.0816.

As to TACCCCGA, the binding signal (normalized occupancy) came to 0.0798.

Turning to CGCTCGCC, the binding signal (normalized occupancy) is 0.068.

Take ATAACTTC: the binding signal (normalized occupancy) amounted to 0.0741.

Take GGTTATTA: the binding signal (normalized occupancy) was 0.0851.

With AACGGCTT, the binding signal (normalized occupancy) was 0.0645.

On to GCAGTGAA, for which the binding signal (normalized occupancy) is 0.0712.

On to CAAGCCCC, for which the binding signal (normalized occupancy) turned out to be 0.0757.

As for ACTTCACC, the binding signal (normalized occupancy) stood at 0.0731.

In the case of CATTACGG, the binding signal (normalized occupancy) turned out to be 0.0774.

Regarding AATATAGC, the binding signal (normalized occupancy) was 0.0773.

Turning to AGTCCATG, the binding signal (normalized occupancy) was determined as 0.0832.

With CCGACGAG, the binding signal (normalized occupancy) turned out to be 0.0722.

As to GAACAAGC, the binding signal (normalized occupancy) came to 0.0732.

Consider CGATGTTC, for which the binding signal (normalized occupancy) turned out to be 0.0738.

As to GCAGCTAC, the binding signal (normalized occupancy) turned out to be 0.0676.

With AGGTGCGC, the binding signal (normalized occupancy) turned out to be 0.0791.

For CCGACTAG, the binding signal (normalized occupancy) came out at 0.066.

Regarding AGCCCTCG, the binding signal (normalized occupancy) was determined as 0.0704.

Take CATCGTAG: the binding signal (normalized occupancy) turned out to be 0.0759.

For CGCATTCA, the binding signal (normalized occupancy) was 0.0752.

Turning to AAAAGGTC, the binding signal (normalized occupancy) was determined as 0.0695.

On to ACAGGCGG, for which the binding signal (normalized occupancy) was 0.0721.

Regarding ATCCAATC, the binding signal (normalized occupancy) is 0.0772.

On to ACTTTGCA, for which the binding signal (normalized occupancy) came out at 0.0659.

With ATCGACTC, the binding signal (normalized occupancy) was determined as 0.0757.

For the sequence AGCGAACT, the binding signal (normalized occupancy) is 0.0724.

Regarding TGACGAAA, the binding signal (normalized occupancy) was found to be 0.0758.

Take AGTTTATA: the binding signal (normalized occupancy) was found to be 0.0789.

ATCTTCGG: the binding signal (normalized occupancy) came to 0.0708.

For the sequence TCATTCAA, the binding signal (normalized occupancy) worked out at 0.0767.

For TACCAGGA, the binding signal (normalized occupancy) is 0.0658.

For CCGAGATC, the binding signal (normalized occupancy) was 0.0743.

In the case of GACCGTCC, the binding signal (normalized occupancy) turned out to be 0.0646.

For the sequence TGGACGAA, the binding signal (normalized occupancy) was 0.0798.

On to GAAGCGTA, for which the binding signal (normalized occupancy) was 0.0738.

CATTGCGC: the binding signal (normalized occupancy) was 0.0734.

As to CGAGCGGA, the binding signal (normalized occupancy) is 0.0706.

As for AGAAACCC, the binding signal (normalized occupancy) was 0.0744.

For ATGACATA, the binding signal (normalized occupancy) turned out to be 0.0825.

For the sequence ATAACGAT, the binding signal (normalized occupancy) turned out to be 0.086.

Regarding GGCTTGAC, the binding signal (normalized occupancy) amounted to 0.0653.

With TGAACCCA, the binding signal (normalized occupancy) was determined as 0.0723.

As to GACCTCGC, the binding signal (normalized occupancy) was determined as 0.0775.

As for ATTAGTCC, the binding signal (normalized occupancy) was determined as 0.0724.

Take ACGCAAAA: the binding signal (normalized occupancy) is 0.0723.

On to AAGCGAGC, for which the binding signal (normalized occupancy) was 0.0682.

With CCTCTGTA, the binding signal (normalized occupancy) was 0.0784.

With GTGGTTAA, the binding signal (normalized occupancy) stood at 0.0835.

For TCCATTAA, the binding signal (normalized occupancy) worked out at 0.0794.

CGCCACAC: the binding signal (normalized occupancy) was determined as 0.0801.

As to GACGTGAC, the binding signal (normalized occupancy) was found to be 0.0813.

Take CAACGCCG: the binding signal (normalized occupancy) was 0.0717.

For the sequence GCGTTAGC, the binding signal (normalized occupancy) was 0.0715.

Regarding GGATTTAA, the binding signal (normalized occupancy) turned out to be 0.0755.

As to GTCCACCA, the binding signal (normalized occupancy) turned out to be 0.0733.

In the case of CGGTCGAG, the binding signal (normalized occupancy) was determined as 0.0699.

As for GTCCGGTA, the binding signal (normalized occupancy) was determined as 0.071.

In the case of ACAGAAGC, the binding signal (normalized occupancy) was 0.0727.

TCAAGAAA: the binding signal (normalized occupancy) stood at 0.0721.

With ACCGTGGA, the binding signal (normalized occupancy) was 0.0797.

On to CAACCGGA, for which the binding signal (normalized occupancy) turned out to be 0.0694.

Turning to GGAATCCC, the binding signal (normalized occupancy) was 0.0772.
